Assay results published in paper PMC12136788.
Some of the results follow.

T1: UNK ZnF1-3 (human, UniProt Q9C0B0 31-174)
T1 sequence: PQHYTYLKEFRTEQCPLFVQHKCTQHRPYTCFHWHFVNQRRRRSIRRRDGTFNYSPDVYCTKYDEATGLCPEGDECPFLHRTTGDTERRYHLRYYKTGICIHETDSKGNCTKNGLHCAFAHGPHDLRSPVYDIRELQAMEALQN

B1: chr7:56126341:56126342:+_ENSG00000146731_ENST00000540286|hu_mus|hu_hu_hu_mus_True|38_98 (ssRNA)
RNA: GGGAGUUCUACAGUCCGACGAUCCAUGUUUCUCCUCUUAGCUCUGCGCAGAGCUACGAUCCCUUCUUUCGCAAGGGCAUCUAAGGAAAAGGGGUCAAUUCCCUUUUGAUUAAUAACGACAAAUCCUUUAUCUGAGUCACCACACAACAGAGGAUUGAGCAUCA
B2: chr7:151048522:151048523:+_ENSG00000013374_ENST00000566856|hu_mus|hu_hu_hu_mus_True|58_88 (ssRNA)
RNA: GGGAGUUCUACAGUCCGACGAUCCUGUUUCUUAUUUAUUACGAUCUUGAUAUAAUUUUCUUGAAAUCCGAAAGUUUCAGCUAUUUUACACCUCAGGUCUCUACCAGUGACAUGCAAGCGGGUCUCCAACAAGCUUUUCUUAUCCAACAGAGGAUUGAGCAUCA
B3: 126194392_126194681_755_CDS_ENSMUSG00000042500_ENSMUST00000084289|mouse|control|control (ssRNA)
RNA: GGGAGUUCUACAGUCCGACGAUCCAGAGGGUGGUAAUAACCUUCAGGAGGUGAGAAAAAAGACCGGCCUACUGGAGUGUACCUCAUAGAGGGGAGAUGCCUUGUAAUCACAUCAAGUGCUUGUACUGAGUCAUCUGGGACUUCCAACAGAGGAUUGAGCAUCA
B4: chr10:75830775:75830776:+_ENSG00000035403_ENST00000372755|perfect_dup|motif|central (ssRNA)
RNA: GGGAGUUCUACAGUCCGACGAUCCAUAGUCUCCACCACCUCUGCCACUGUAAGAUAUUCCAAAAUUCCUUUGCAAACUCGGAUAAUUUUACGGACCUCAGCCUCAUCGAAGGUAAGGAGCAGGUCUGAUGUUCCAGAGAGGAUCAACAGAGGAUUGAGCAUCA
B5: 39874737_39876001_2784_CDS_ENSG00000121892_ENST00000303538|human|control|control (ssRNA)
RNA: GGGAGUUCUACAGUCCGACGAUCAUCAGCAUUCAGACUCCUACUGAGUGGCUCAAAAAUCUGUGCAAGCUGGACUUCUUUAUUUGUGAAUAUGGCGUGUAUACAGUGCACAGCCUGUUUUGCUUGGUGUGGAGUACCCCUCUUCAACAGAGGAUUGAGCAUCA
B6: chr9:135984185:135984186:-_ENSG00000160271_ENST00000372050|hu_mus|FALSE|FALSE (ssRNA)
RNA: GGGAGUUCUACAGUCCGACGAUCAUCUGAGCCAGGCAUGUUGAGCUGUACAUAAGCCACCAGCUGCUUGAGGCAGGGAAAGUCCGGAGGUUGACAGAAAUCCUCUGAGUAUUGGUCCAGCCAGGUGCCCAGGAUGGAGGAGAUCAACAGAGGAUUGAGCAUCA
B7: chr15:99827826:99827827:+_ENSMUSG00000023025_ENSMUST00000100206|mus_mus|motif|central (ssRNA)
RNA: GGGAGUUCUACAGUCCGACGAUCAUUCAUAGCAGCAGCAUUUGUUUUGUAAGAUCCUGGUGAACUAAAGCCAUUCACAAAACGGCCAUUGGGAAAGGGAGCCAGUGGUGUUUCAAAGUAAGGUGCAGGACUUGGAGACCAAGACAACAGAGGAUUGAGCAUCA
B8: 126977228_126977348_13475_CDS_ENSMUSG00000040249_ENSMUST00000049149|mouse|control|control (ssRNA)
RNA: GGGAGUUCUACAGUCCGACGAUCCUGCUUAUUGACCACACAGGCGCCUUGGAGACAGCGACUACACUUGUUCACCUCACACCUUGGUCCCUCAAAGUAGACGGUGCAGCGACAUUGUCGGGAGCCAUCAGCAGCCAUCUGACACAACAGAGGAUUGAGCAUCA
B9: chr6:38652254:38652255:-_ENSG00000124767_ENST00000373365|hu_hu|hu_hu_hu_mus_False|1_58 (ssRNA)
RNA: GGGAGUUCUACAGUCCGACGAUCCGAGAACUUCAUAGCAGGGAAGUCAAGCUUCUGCAGGAGGGUCAGUCCAAGAACUCUAGUAUAAAAAUCCAGGGACUUCUUAGGAUCCUUAAUUCUUAGCAUCGUUUGCUGCAAUAGAAACAACAGAGGAUUGAGCAUCA
B10: chr9:59188957:59188958:-_ENSMUSG00000025235_ENSMUST00000026265|mus_hu|motif|central (ssRNA)
RNA: GGGAGUUCUACAGUCCGACGAUCGGCCACCUGCUUGAGGUUAUCAGCACUCUGAGGACUAAGAACUGCACAUGUCUGGAAGAGUUCGGGGGAUUCUUGGAUAUUUCCUUCUAGGCGAAAUAUCAAUGCUUGGACAUAGAUAGCCAACAGAGGAUUGAGCAUCA
B11: chr8:98289279:98289280:-_ENSG00000180543_ENST00000322128|hu_hu|FALSE|FALSE (ssRNA)
RNA: GGGAGUUCUACAGUCCGACGAUCUUCCAAGCUGUUUAAGUAGCUCAGUACCUCUUUCUCUUGGCUAUUCAGAAAGGAUGCUAGCUGGGGAUGGUUCUGAAAUGCUUGCCCCCAGAAGCCCGGGAUAUUUUGGAUGAGGUGGUUCAACAGAGGAUUGAGCAUCA
B12: chr13:46067487:46067488:+_ENSG00000136152_ENST00000349995|hu_hu|FALSE|FALSE (ssRNA)
RNA: GGGAGUUCUACAGUCCGACGAUCGAUCAAUGGCCUGAAGACAUCAUACAAUGACACACACAGUUUCUCCAAAAGCUCAUCUAAUUUUGAUGUUGGUUUUGUGAAAAAUUCAUUGUAAAGUUGGUGUUCAUCCUGGCAGACAUGCAACAGAGGAUUGAGCAUCA
B13: chr11:4127340:4127341:+_ENSG00000167325_ENST00000300738|hu_hu|motif|central (ssRNA)
RNA: GGGAGUUCUACAGUCCGACGAUCAGCAUAGUCAGGGUGCUUAGUAGUCAAGGUUGCAGCUGUUUCAGCAGCCAAAGUAUCGGGUUCCACUGUGGUGACCCCACUGUACAAGCCUUGGAUUACUUUCAUGGUGAUCUGAGCAGGCAACAGAGGAUUGAGCAUCA
B14: chr4:101300647:101300648:+_ENSMUSG00000028528_ENSMUST00000094953|mus_hu|FALSE|FALSE (ssRNA)
RNA: GGGAGUUCUACAGUCCGACGAUCAGUACCAUGCGAGGAUCCGGUUGGGCUGGUGGCAGCUGACUUGCUUCCCAUUCCAAAGCCUCCUGGUUUAGCAUGCCAGUCCCAACCUCCAGAAACAUCUGGCUGAAUGUUCACAGCAGGCAACAGAGGAUUGAGCAUCA
B15: chr14:62194323:62194324:+_ENSG00000100644_ENST00000337138|hu_hu|motif|central (ssRNA)
RNA: GGGAGUUCUACAGUCCGACGAUCUCUUUCAUCACAAUAAGAAAAUUUCAUAUCCAGGCUGUGUCGACUGAGGAAAGUCUUGCGGUCGGAAGGAAUUUCAAUAUUUGAUGGGUGAGGAAUGGGUUCACAAAUCAGCACCAAGCACAACAGAGGAUUGAGCAUCA
B16: chr5:72801247:72801248:+_ENSG00000145741_ENST00000335895|hu_mus|FALSE|FALSE (ssRNA)
RNA: GGGAGUUCUACAGUCCGACGAUCUUUUAUUAACCCUUUCCAAACUUUAUUCCCAGGCUUCUUCAGCUUUAUUUGCCGCAAAGAAUGAAUUAGGUAUAGCGAAAACUGAAAAGAGCUGCAGUGUCCGGGGGCUUGGGCUUAAAACAACAGAGGAUUGAGCAUCA
B17: chr16:94651144:94651145:+_ENSMUSG00000040785_ENSMUST00000117648|mus_hu|mus_mus_mus_hu_True|8_108 (ssRNA)
RNA: GGGAGUUCUACAGUCCGACGAUCAUUCUCUUGGAUCAAGUGGCGAAUAACAUAGUCCACUGCUUCAUUUAGAAAAUUUCUGCUAGAAAAACAGGUUGUAUAGUCUUCUGUGCUCAAAACUUUCCAAGAGAGCAGCUCUUUGAGCAACAGAGGAUUGAGCAUCA
B18: chr7:141441981:141441982:+_ENSG00000106028_ENST00000265304|hu_hu|FALSE|FALSE (ssRNA)
RNA: GGGAGUUCUACAGUCCGACGAUCCUCAUGUCUUACAAACUGACGAAGUACCUGUAAUACAGGUCUUCGAAACAUGGCUUCUAUUUUCUUUUCUUACAGUCUAAUCUUUAGGCUUUUCCUGACGAUCUAACCCGAGCAGCCCAGCAACAGAGGAUUGAGCAUCA
B19: chr1:23645023:23645024:-_ENSG00000125944_ENST00000302271|hu_hu|motif|central (ssRNA)
RNA: GGGAGUUCUACAGUCCGACGAUCCUUAGCCAUGACUUCUGGAUCUGGUUCUUCCACAGGGUCAGCCCAUUCAACUGUAACGGCAUUUCCCCACACUUUUACUUUUCCACUCAUCAGCCGGCGUCUGGCUUGUGCUGCUGACUUCAACAGAGGAUUGAGCAUCA
B20: chr2:78712580:78712581:+_ENSMUSG00000027011_ENSMUST00000028398|mus_hu|FALSE|FALSE (ssRNA)
RNA: GGGAGUUCUACAGUCCGACGAUCAUUAGGAGGAGGAUCAAGGGUUAUUUCAGCUAGCUCCUUCUGAAUUCUUUUAGCACUAGUGGAUAACUUAGCAGUGGUUUUGCUAGAGAGUUUGGUGUUUUUCUUCUGCUGGGUGGCAGACAACAGAGGAUUGAGCAUCA
B21: chr1:68170538:68170539:-_ENSG00000172380_ENST00000370982|hu_mus|motif|central (ssRNA)
RNA: GGGAGUUCUACAGUCCGACGAUCCUUUGCAACGUUCUUUCAUUACCUUUUUUUUUGUACAAAAAUUUCACGGAAAUUUACCGGCACAGAGUCAGGAUAAUGAUGUAACUCUGAAGGGAGGGAGCUACCGCAGGAAGUUUCAGGCAACAGAGGAUUGAGCAUCA
B22: chr5:128440902:128440903:+_ENSG00000066583_ENST00000173527|hu_mus|hu_hu_hu_mus_True|68_88 (ssRNA)
RNA: GGGAGUUCUACAGUCCGACGAUCUUGAACGGUGCUGCCAAGUCCUUUAGGGUAUUGUUCCGUUAUGAUAACAGGAAUCCCUAAGAUCCGAGCUCCUUGCAACAGUCUCUGUCCCACACUAAUGAUGUCCCCAAAGUAUUUGAUCAACAGAGGAUUGAGCAUCA

The binders below were run against T1, UNK ZnF1-3 (assay: nsRBNS (natural sequence RNA bind-n-seq); RBNS binding buffer (assumed for nsRBNS): 25 mM Tris pH 7.5, 150 mM KCl, 3 mM MgCl2, 0.01% Triton X-100, 500 ug/ml BSA, 20 U/ml SUPERase-In, 4 C; UNK is unkempt and MSI1 is Musashi-1; names of the RNAs are library labels; protein concentration not given here; high values mean tight binding).

Binder | binding signal [enrichment R]
B1 | 0.752
B2 | 0.995
B3 | 1.18
B4 | 1.26
B5 | 1.15
B6 | 1.67
B7 | 1.56
B8 | 0.928
B9 | 1.14
B10 | 1.62
B11 | 1.12
B12 | 1.35
B13 | 1.19
B14 | 1.24
B15 | 1.23
B16 | 1.31
B17 | 1.04
B18 | 0.906
B19 | 0.534
B20 | 0.984
B21 | 1.28
B22 | 0.838
